These results are taken from publication PMC3317646, “Interaction of Chandipura Virus N and P Proteins: Identification of Two Mutually Exclusive Domains of N Involved in Interaction with P” (PLoS ONE, 2012).

Protein sequences, listed by entry. Tags and fused reporters are not part of them. Lines headed by an entry give the natural chain unless they say otherwise; changes in a name come on top. Residues count along the entry.
UniProt P11211: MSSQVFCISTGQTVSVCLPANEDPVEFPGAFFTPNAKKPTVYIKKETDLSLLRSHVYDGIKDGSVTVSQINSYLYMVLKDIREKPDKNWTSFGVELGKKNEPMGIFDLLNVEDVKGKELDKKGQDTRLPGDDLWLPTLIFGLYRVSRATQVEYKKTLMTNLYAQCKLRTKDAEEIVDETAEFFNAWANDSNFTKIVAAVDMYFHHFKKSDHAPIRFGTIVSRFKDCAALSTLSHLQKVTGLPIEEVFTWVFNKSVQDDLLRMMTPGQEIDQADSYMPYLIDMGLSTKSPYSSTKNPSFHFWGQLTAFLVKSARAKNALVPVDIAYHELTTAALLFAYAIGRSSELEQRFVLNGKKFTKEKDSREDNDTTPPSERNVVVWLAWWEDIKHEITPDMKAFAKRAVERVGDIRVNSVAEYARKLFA
UniProt P02769, residues 25-607: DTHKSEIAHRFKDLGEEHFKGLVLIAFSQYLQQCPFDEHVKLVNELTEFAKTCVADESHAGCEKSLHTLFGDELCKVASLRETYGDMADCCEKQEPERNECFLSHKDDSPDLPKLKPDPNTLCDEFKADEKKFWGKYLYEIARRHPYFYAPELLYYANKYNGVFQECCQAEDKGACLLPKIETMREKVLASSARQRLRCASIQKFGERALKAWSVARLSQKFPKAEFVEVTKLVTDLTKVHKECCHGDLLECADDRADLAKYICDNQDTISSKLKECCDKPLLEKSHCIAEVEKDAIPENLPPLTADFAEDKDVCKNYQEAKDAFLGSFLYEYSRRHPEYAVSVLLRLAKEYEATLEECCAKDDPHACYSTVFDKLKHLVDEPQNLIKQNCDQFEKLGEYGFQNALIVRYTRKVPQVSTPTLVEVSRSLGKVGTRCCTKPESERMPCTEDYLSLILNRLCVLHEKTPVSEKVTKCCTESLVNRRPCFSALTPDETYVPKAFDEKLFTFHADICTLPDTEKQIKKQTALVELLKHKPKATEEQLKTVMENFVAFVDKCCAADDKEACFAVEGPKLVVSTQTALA

These are yes or no findings as the source states them, for the method shown. For some assays here: Binding seen in cells or lysates may run through a third protein. Some results given as binding are weak or reduced against the parent protein; the word gives no strength. For some assays here: Tags and fused reporters may be left off the sequences shown.

Test [1] addresses T1, N-terminal six histidine tagged P protein of Chandipura virus (His-P) (Chandipura virus) (UniProt P16380).
T1 sequence: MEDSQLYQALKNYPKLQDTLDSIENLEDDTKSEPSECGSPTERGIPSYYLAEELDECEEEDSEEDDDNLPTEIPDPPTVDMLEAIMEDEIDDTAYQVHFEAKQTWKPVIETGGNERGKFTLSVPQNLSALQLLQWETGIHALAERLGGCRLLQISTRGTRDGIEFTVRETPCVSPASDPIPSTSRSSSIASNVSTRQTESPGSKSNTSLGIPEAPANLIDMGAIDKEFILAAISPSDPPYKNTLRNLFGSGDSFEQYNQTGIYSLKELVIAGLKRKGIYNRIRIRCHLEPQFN
The experiment in a line: pull-down; His-tag co-elution: N proteins not treated with DOC incubated with 6×His-P in 50 mM Tris-Cl pH 8, 100 mM NaCl, 0.1% Triton X-100, 10 mM imidazole, 30 min at 4°C; bound to Ni-NTA agarose, eluted with 250 mM imidazole; both purified.

The target in test [2] is T2, Chandipura virus P protein, wild-type, untagged, in Vero-76 cells (Chandipura virus) (UniProt P16380).
T2 sequence: T1 sequence
Description: co-IP; Vero-76 cells co-transfected with 2 µg of each plasmid, labelled with 35S methionine/cysteine 24 h after transfection; lysates precipitated with polyclonal anti-P antibody and Protein-A Sepharose; autoradiography.

The target in test [3] is T1, N-terminal six histidine tagged P protein of Chandipura virus (His-P) (Chandipura virus). Description: condition: only without DOC pre-treatment (self-associated form); pull-down; His-tag co-elution: N proteins not treated with DOC incubated with 6×His-P in 50 mM Tris-Cl pH 8, 100 mM NaCl, 0.1% Triton X-100, 10 mM imidazole, 30 min at 4°C; bound to Ni-NTA agarose, eluted with 250 mM imidazole; both purified.

Test [4] deals with N(1–320), bacterially expressed (Chandipura virus) (UniProt P11211). Description: SEC; N(1–320) treated with DOC and DOC removed without P, compared with the untreated sample; data not shown; both purified. In general terms: SEC sorts molecules by how far they enter the pores of the column.
In test [5] the target is T3, Chandipura virus phosphoprotein (P), wild-type, untagged, bacterially expressed (Chandipura virus) (UniProt P16380).
T3 sequence: T1 sequence
The experiment in a line: condition: only without DOC pre-treatment (oligomeric N(1–320)); SEC; equimolar N (or N(1–320)) and P incubated 30 min at 4°C in 100 mM NaCl TET buffer, no DOC treatment (N oligomeric); S-200 (10/300); ratio by densitometry of bands; both purified.

Test [6] addresses N(48–422), bacterially expressed (Chandipura virus) (UniProt P11211). Description: SEC; each purified protein alone on Superdex-200 / S-200 (10/300), 100 mM NaCl TET buffer; oligomerization status from the elution volume; both purified.
The target of test [7] is N(180–422), bacterially expressed (Chandipura virus) (UniProt P11211). The description is as above.
In test [8] the target is T2, Chandipura virus P protein, wild-type, untagged, in Vero-76 cells (Chandipura virus). The experiment in a line: co-sedimentation; 10–60% sucrose step gradient, 16 h at 32000 rpm, 4°C, of the soluble fraction of Vero-76 cells co-transfected 1∶1 with GFP-N and P; fractions blotted with N and P antibodies.
Test [9] deals with N-terminal EGFP tagged wild-type N of Chandipura virus (GFP-N), in Vero-76 cells (Chandipura virus) (UniProt P11211). The description is as above.

Regarding “Bovine Serum Albumin (from UniProt P02769 25-607)”, the binding entry in test [1] is given as “no binding”.

Consider “GFP-N(1–220), in Vero-76 cells (from UniProt P11211 1-220) (domain or fragment)”, for which, in test [2], the binding entry is “binds”.

For “GFP-N(1–320), in Vero-76 cells (from UniProt P11211 1-320) (domain or fragment)”, in [2], the binding entry is reported as “binds”.

With “GFP-N(1–390), in Vero-76 cells (from UniProt P11211 1-390) (domain or fragment)”, the binding entry in test [2] is given as “binds”.

For the substance “GFP-N(22–422), in Vero-76 cells (from UniProt P11211 22-422) (domain or fragment)”, the binding entry in test [2] is listed as “binds”.

For “GFP-N(48–422), in Vero-76 cells (from UniProt P11211 48-422) (domain or fragment)”, the binding result in [2] was “binds”.

“GFP-N(180–422), in Vero-76 cells (from UniProt P11211 180-422) (domain or fragment)”: the binding entry in test [2] is on record as “no binding”.

For “N(1–220), bacterially expressed (from UniProt P11211 1-220) (domain or fragment)”, the binding entry in test [3] is reported as “no binding”.

With “N(1–320), bacterially expressed (from UniProt P11211 1-320) (domain or fragment)”, the binding entry in test [4] is on record as “binds”; in [5] it was “no binding”; in [3] it was “no binding”.

Turning to “N(48–422), bacterially expressed (from UniProt P11211 48-422) (domain or fragment)”, the binding entry in test [6] was “no binding”.

Consider “N(180–422), bacterially expressed (from UniProt P11211 180-422) (domain or fragment)”, for which the binding result in test [7] and in test [1] was “no binding” in each case.

On to “N-terminal EGFP tagged wild-type N of Chandipura virus (GFP-N), in Vero-76 cells (from UniProt P11211 1-422)”, for which the binding entry in test [8], in [9] and in test [2] was “binds” throughout.
